# Reference: the supplement of paper PMC8728848
# The other results are listed elsewhere or left out.
# B1: cupB6 (Pseudomonas aeruginosa), Q02SP7 (protein)
# chain: MSMRLFPGRVSLRRRPGAQARQALVLGLCCLTGGQAWALNEVALNCSFGNGKGLPWRVVNELTSGTAKGTVLFARPVSLFLSYKPQASQEAHELVLGGNWSGVGYPGPYGTVASDVKGIGYRISVDAQDGVKRVIPVDNQPHALDKRVTSFSGSTTSDYLQELVLTVDPGELPAGDLKVTSVSGSATLNLWAVDRLKGEASIGSVLAVPADNYPTGVCRKPYSLIGPASIAIGGGPPPPPIPKKCKVEVGREINVKLGSVALKNFPRVNDTSTERSFDISLSECAALAKPEIAFRDKYVSAQQADPTILSLKSGGAAGFGIVVKNGLDQQRIRFDGTPYPMRRVGDSADLPLSAAYIRIGAEGELKAGVADGAAEFTFTFP
# Columns and labels:
# Experiment in all cases: glycan array binding signal (z-score within array); higher = stronger binding
# Conditions in all cases: glycan notation: IUPAC condensed, linker removed
# Fuc(a1-2)Gal = target: Fuc(a1-2)Gal
# Outline: (§1)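 Glycan array data came from 3228 arrays in the Consortium for Functional Glycomics database, and only arrays with an available protein sequence were kept. Glycan names were put into IUPAC-condensed notation, and columns mapping to the same glycan were averaged. The binding signal is a within-array Z-score, averaged across arrays of one protein sequence run at different concentrations or buffers and across linkers. A negative Z-score can be read as non-binding.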
# Fuc(a1-2)Gal(b1-3)GalNAc = target: Fuc(a1-2)Gal(b1-3)GalNAc
# Outline: as §1
# [1] = target: Fuc(a1-2)Gal(b1-3)GalNAc(a1-3)[Fuc(a1-2)]Gal(b1-4)Glc
# Outline: as §1
# [2] = target: Fuc(a1-2)Gal(b1-3)GalNAc(a1-3)[Fuc(a1-2)]Gal(b1-4)GlcNAc
# Outline: as §1
# [3] = target: Fuc(a1-2)Gal(b1-3)GalNAc(b1-3)Gal
# Outline: as §1
# [4] = target: Fuc(a1-2)Gal(b1-3)GalNAc(b1-3)Gal(a1-4)Gal(b1-4)Glc
# Outline: as §1
# [5] = target: Fuc(a1-2)Gal(b1-3)GalNAc(b1-4)[Neu5Ac(a2-3)]Gal(b1-4)Glc
# Outline: as §1
# Fuc(a1-2)Gal(b1-3)GlcNAc = target: Fuc(a1-2)Gal(b1-3)GlcNAc
# Outline: as §1
# [6] = target: Fuc(a1-2)Gal(b1-3)GlcNAc(b1-2)Man(a1-3)[Fuc(a1-2)Gal(b1-3)GlcNAc(b1-2)Man(a1-6)]Man(b1-4)GlcNAc(b1-4)GlcNAc
# Outline: as §1
# [7] = target: Fuc(a1-2)Gal(b1-3)GlcNAc(b1-3)Gal(b1-4)Glc
# Outline: as §1
# [8] = target: Fuc(a1-2)Gal(b1-3)GlcNAc(b1-3)[Fuc(a1-3)[Gal(b1-4)]GlcNAc(b1-6)]Gal(b1-4)Glc
# Outline: as §1
# [9] = target: Fuc(a1-2)Gal(b1-3)[Fuc(a1-4)]GlcNAc
# Outline: as §1
# [10] = target: Fuc(a1-2)Gal(b1-3)[Fuc(a1-4)]GlcNAc(b1-2)Man(a1-3)[Fuc(a1-2)Gal(b1-3)[Fuc(a1-4)]GlcNAc(b1-2)Man(a1-6)]Man(b1-4)GlcNAc(b1-4)GlcNAc
# Outline: as §1
# [11] = target: Fuc(a1-2)Gal(b1-3)[Fuc(a1-4)]GlcNAc(b1-3)[Fuc(a1-3)[Gal(b1-4)]GlcNAc(b1-6)]Gal(b1-4)Glc
# Outline: as §1
# [12] = target: Fuc(a1-2)Gal(b1-3)[Fuc(a1-4)]GlcNAc(b1-3)[Gal(b1-4)GlcNAc(b1-6)]Gal(b1-4)Glc
# Outline: as §1
# Fuc(a1-2)Gal(b1-4)Glc = target: Fuc(a1-2)Gal(b1-4)Glc
# Outline: as §1
# Fuc(a1-2)Gal(b1-4)Glc6S = target: Fuc(a1-2)Gal(b1-4)Glc6S
# Outline: as §1
# Fuc(a1-2)Gal(b1-4)GlcNAc = target: Fuc(a1-2)Gal(b1-4)GlcNAc
# Outline: as §1
# [13] = target: Fuc(a1-2)Gal(b1-4)GlcNAc(b1-2)Man(a1-3)[Fuc(a1-2)Gal(b1-4)GlcNAc(b1-2)Man(a1-6)]Man(b1-4)GlcNAc(b1-4)GlcNAc
# Outline: as §1
# [14] = target: Fuc(a1-2)Gal(b1-4)GlcNAc(b1-3)Gal(b1-4)GlcNAc
# Outline: as §1
# [15] = target: Fuc(a1-2)Gal(b1-4)GlcNAc(b1-3)Gal(b1-4)GlcNAc(b1-3)Gal(b1-4)GlcNAc
# Outline: as §1
# [16] = target: Fuc(a1-2)Gal(b1-4)GlcNAc(b1-3)GalNAc
# Outline: as §1
# [17] = target: Fuc(a1-2)Gal(b1-4)GlcNAc6S
# Outline: as §1
# [18] = target: Fuc(a1-2)Gal(b1-4)[Fuc(a1-3)]GlcNAc
# Outline: as §1
# [19] = target: Fuc(a1-2)Gal(b1-4)[Fuc(a1-3)]GlcNAc(b1-2)Man(a1-3)[Fuc(a1-2)Gal(b1-4)[Fuc(a1-3)]GlcNAc(b1-2)Man(a1-6)]Man(b1-4)GlcNAc(b1-4)GlcNAc
# Outline: as §1
# [20] = target: Fuc(a1-2)Gal(b1-4)[Fuc(a1-3)]GlcNAc(b1-3)Gal(b1-4)[Fuc(a1-3)]GlcNAc
# Outline: as §1
# [21] = target: Fuc(a1-2)Gal(b1-4)[Fuc(a1-3)]GlcNAc(b1-3)Gal(b1-4)[Fuc(a1-3)]GlcNAc(b1-3)Gal(b1-4)[Fuc(a1-3)]GlcNAc
# Outline: as §1
# Fuc(a1-2)Gal6S(b1-4)Glc = target: Fuc(a1-2)Gal6S(b1-4)Glc
# Outline: as §1
# [22] = target: Fuc(a1-2)Gal6S(b1-4)Glc6S
# Outline: as §1
# [23] = target: Fuc(a1-2)Gal6S(b1-4)GlcNAc
# Outline: as §1
# Fuc(a1-2)[Gal(a1-3)]Gal = target: Fuc(a1-2)[Gal(a1-3)]Gal
# Outline: as §1
# [24] = target: Fuc(a1-2)[Gal(a1-3)]Gal(b1-3)GlcNAc
# Outline: as §1
# [25] = target: Fuc(a1-2)[Gal(a1-3)]Gal(b1-3)GlcNAc(b1-2)Man(a1-3)[Fuc(a1-2)[Gal(a1-3)]Gal(b1-3)GlcNAc(b1-2)Man(a1-6)]Man(b1-4)GlcNAc(b1-4)GlcNAc
# Outline: as §1
# [26] = target: Fuc(a1-2)[Gal(a1-3)]Gal(b1-4)Glc
# Outline: as §1
# [27] = target: Fuc(a1-2)[Gal(a1-3)]Gal(b1-4)GlcNAc
# Outline: as §1
# [28] = target: Fuc(a1-2)[Gal(a1-3)]Gal(b1-4)GlcNAc(b1-2)Man(a1-3)[Fuc(a1-2)[Gal(a1-3)]Gal(b1-4)GlcNAc(b1-2)Man(a1-6)]Man(b1-4)GlcNAc(b1-4)GlcNAc
# Outline: as §1
# [29] = target: Fuc(a1-2)[Gal(a1-3)]Gal(b1-4)[Fuc(a1-3)]GlcNAc
# Outline: as §1
# [30] = target: Fuc(a1-2)[Gal(a1-4)]Gal(b1-4)GlcNAc
# Outline: as §1
# [31] = target: Fuc(a1-2)[GalNAc(a1-3)]Gal
# Outline: as §1
# [32] = target: Fuc(a1-2)[GalNAc(a1-3)]Gal(b1-3)GalNAc(a1-3)[Fuc(a1-2)]Gal(b1-4)GlcNAc
# Outline: as §1
# [33] = target: Fuc(a1-2)[GalNAc(a1-3)]Gal(b1-3)GlcNAc
# Outline: as §1
# [34] = target: Fuc(a1-2)[GalNAc(a1-3)]Gal(b1-3)GlcNAc(b1-2)Man(a1-3)[Fuc(a1-2)[GalNAc(a1-3)]Gal(b1-3)GlcNAc(b1-2)Man(a1-6)]Man(b1-4)GlcNAc(b1-4)GlcNAc
# Outline: as §1
# [35] = target: Fuc(a1-2)[GalNAc(a1-3)]Gal(b1-4)Glc
# Outline: as §1
# [36] = target: Fuc(a1-2)[GalNAc(a1-3)]Gal(b1-4)GlcNAc
# Outline: as §1
# [37] = target: Fuc(a1-2)[GalNAc(a1-3)]Gal(b1-4)GlcNAc(b1-2)Man(a1-3)[Fuc(a1-2)[GalNAc(a1-3)]Gal(b1-4)GlcNAc(b1-2)Man(a1-6)]Man(b1-4)GlcNAc(b1-4)GlcNAc
# Outline: as §1
# [38] = target: Fuc(a1-2)[GalNAc(a1-3)]Gal(b1-4)GlcNAc(b1-3)Gal(b1-4)GlcNAc
# Outline: as §1
# [39] = target: Fuc(a1-2)[GalNAc(a1-3)]Gal(b1-4)GlcNAc(b1-3)Gal(b1-4)GlcNAc(b1-3)Gal(b1-4)GlcNAc
# Outline: as §1
# [40] = target: Fuc(a1-2)[GalNAc(a1-3)]Gal(b1-4)[Fuc(a1-3)]GlcNAc
# Outline: as §1
# [41] = target: Fuc(a1-2)[GalNAc(a1-4)]Gal(b1-4)GlcNAc
# Outline: as §1
# [42] = target: Fuc(a1-2)[GalNAc(b1-3)]Gal
# Outline: as §1
# Fuc(a1-3)GlcNAc = target: Fuc(a1-3)GlcNAc
# Outline: as §1
# [43] = target: Fuc(a1-3)[Gal(b1-4)]Glc6S
# Outline: as §1
# [44] = target: Fuc(a1-3)[Gal(b1-4)]GlcNAc
# Outline: as §1
# [45] = target: Fuc(a1-3)[Gal(b1-4)]GlcNAc(b1-2)Man(a1-3)[Fuc(a1-3)[Gal(b1-4)]GlcNAc(b1-2)Man(a1-6)]Man(b1-4)GlcNAc(b1-4)GlcNAc
# Outline: as §1
# [46] = target: Fuc(a1-3)[Gal(b1-4)]GlcNAc(b1-3)Gal(b1-3)[Fuc(a1-4)]GlcNAc
# Outline: as §1
# [47] = target: Fuc(a1-3)[Gal(b1-4)]GlcNAc(b1-3)GalNAc
# Outline: as §1
# [48] = target: Fuc(a1-3)[Gal(b1-4)]GlcNAc(b1-4)Gal(b1-4)[Fuc(a1-3)]GlcNAc
# Outline: as §1
# [49] = target: Fuc(a1-3)[Gal(b1-4)]GlcNAc(b1-4)Gal(b1-4)[Fuc(a1-3)]GlcNAc(b1-4)Gal(b1-4)[Fuc(a1-3)]GlcNAc
# Outline: as §1
# [50] = target: Fuc(a1-3)[Gal(b1-4)]GlcNAc(b1-6)[Gal(b1-3)GlcNAc(b1-3)]Gal(b1-4)Glc
# Outline: as §1
# [51] = target: Fuc(a1-3)[Gal(b1-4)]GlcNAc6S
# Outline: as §1
binder,measurement,setting,value
B1,glycan array binding signal (z-score),Fuc(a1-2)Gal,0.029
same,glycan array binding signal (z-score),Fuc(a1-2)Gal(b1-3)GalNAc,0.085
same,glycan array binding signal (z-score),[1],-0.062
same,glycan array binding signal (z-score),[2],0.001
same,glycan array binding signal (z-score),[3],0.091
same,glycan array binding signal (z-score),[4],-0.202
same,glycan array binding signal (z-score),[5],-0.175
same,glycan array binding signal (z-score),Fuc(a1-2)Gal(b1-3)GlcNAc,0.125
same,glycan array binding signal (z-score),[6],-0.047
same,glycan array binding signal (z-score),[7],-0.163
same,glycan array binding signal (z-score),[8],0.052
same,glycan array binding signal (z-score),[9],19.6
same,glycan array binding signal (z-score),[10],0.096
same,glycan array binding signal (z-score),[11],-0.084
same,glycan array binding signal (z-score),[12],0.133
same,glycan array binding signal (z-score),Fuc(a1-2)Gal(b1-4)Glc,-0.029
same,glycan array binding signal (z-score),Fuc(a1-2)Gal(b1-4)Glc6S,0.336
same,glycan array binding signal (z-score),Fuc(a1-2)Gal(b1-4)GlcNAc,-0.089
same,glycan array binding signal (z-score),[13],0.022
same,glycan array binding signal (z-score),[14],0.239
same,glycan array binding signal (z-score),[15],-0.014
same,glycan array binding signal (z-score),[16],-0.188
same,glycan array binding signal (z-score),[17],-0.228
same,glycan array binding signal (z-score),[18],-0.107
same,glycan array binding signal (z-score),[19],0.275
same,glycan array binding signal (z-score),[20],0.023
same,glycan array binding signal (z-score),[21],0.007
same,glycan array binding signal (z-score),Fuc(a1-2)Gal6S(b1-4)Glc,0.068
same,glycan array binding signal (z-score),[22],-0.207
same,glycan array binding signal (z-score),[23],0.081
same,glycan array binding signal (z-score),Fuc(a1-2)[Gal(a1-3)]Gal,-0.026
same,glycan array binding signal (z-score),[24],0.045
same,glycan array binding signal (z-score),[25],-0.057
same,glycan array binding signal (z-score),[26],-0.064
same,glycan array binding signal (z-score),[27],0.016
same,glycan array binding signal (z-score),[28],-0.008
same,glycan array binding signal (z-score),[29],0.027
same,glycan array binding signal (z-score),[30],-0.244
same,glycan array binding signal (z-score),[31],-0.125
same,glycan array binding signal (z-score),[32],-0.021
same,glycan array binding signal (z-score),[33],0.154
same,glycan array binding signal (z-score),[34],-0.074
same,glycan array binding signal (z-score),[35],-0.018
same,glycan array binding signal (z-score),[36],-0.142
same,glycan array binding signal (z-score),[37],0.216
same,glycan array binding signal (z-score),[38],0.097
same,glycan array binding signal (z-score),[39],0.162
same,glycan array binding signal (z-score),[40],0.149
same,glycan array binding signal (z-score),[41],-0.212
same,glycan array binding signal (z-score),[42],-0.269
same,glycan array binding signal (z-score),Fuc(a1-3)GlcNAc,-0.2
same,glycan array binding signal (z-score),[43],-0.171
same,glycan array binding signal (z-score),[44],-0.113
same,glycan array binding signal (z-score),[45],-0.088
same,glycan array binding signal (z-score),[46],0.089
same,glycan array binding signal (z-score),[47],0.027
same,glycan array binding signal (z-score),[48],0.005
same,glycan array binding signal (z-score),[49],-0.156
same,glycan array binding signal (z-score),[50],0.035
same,glycan array binding signal (z-score),[51],0.17
